Measured values from PMC10416611.
Results are given in words; binding and its absence hold for the method and conditions named. Binding seen in cells or lysates may run through a third protein. Some binding calls cover weakened binding; strength is not graded here. Where a sequence is shown, tags or fusion partners need not be part of it.

The chains behind the UniProt entries cited, without tags or fusion partners.
UniProt P22953: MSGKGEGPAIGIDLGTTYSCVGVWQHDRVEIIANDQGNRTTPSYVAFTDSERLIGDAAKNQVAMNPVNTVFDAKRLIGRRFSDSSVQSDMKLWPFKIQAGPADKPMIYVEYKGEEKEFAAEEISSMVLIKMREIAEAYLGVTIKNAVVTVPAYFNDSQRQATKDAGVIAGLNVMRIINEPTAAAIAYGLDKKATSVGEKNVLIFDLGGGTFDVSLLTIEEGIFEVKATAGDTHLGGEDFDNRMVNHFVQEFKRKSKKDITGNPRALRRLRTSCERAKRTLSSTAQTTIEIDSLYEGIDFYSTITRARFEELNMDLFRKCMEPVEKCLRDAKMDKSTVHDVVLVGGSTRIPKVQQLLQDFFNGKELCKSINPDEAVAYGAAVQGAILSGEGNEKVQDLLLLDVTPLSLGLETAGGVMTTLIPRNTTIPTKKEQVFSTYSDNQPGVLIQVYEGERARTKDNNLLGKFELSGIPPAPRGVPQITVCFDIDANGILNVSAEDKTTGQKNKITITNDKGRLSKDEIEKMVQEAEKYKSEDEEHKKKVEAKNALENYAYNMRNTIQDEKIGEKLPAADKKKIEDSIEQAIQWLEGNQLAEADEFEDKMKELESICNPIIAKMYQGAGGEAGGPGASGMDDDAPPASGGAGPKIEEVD

T1: AT-HOOK MOTIF NUCLEAR LOCALIZED 28 (AHL28), luciferase-half fusions for LCI (Arabidopsis thaliana) (UniProt Q9M9R4)
T1 sequence: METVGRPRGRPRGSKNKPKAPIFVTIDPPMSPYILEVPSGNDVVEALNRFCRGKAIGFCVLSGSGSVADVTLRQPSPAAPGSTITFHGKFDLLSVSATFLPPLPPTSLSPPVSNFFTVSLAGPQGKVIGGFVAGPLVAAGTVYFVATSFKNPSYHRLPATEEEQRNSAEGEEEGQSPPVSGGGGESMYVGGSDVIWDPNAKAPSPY

T2: AHL28, YFP-half fusions for BiFC (Arabidopsis thaliana) (UniProt Q9M9R4)
T2 sequence: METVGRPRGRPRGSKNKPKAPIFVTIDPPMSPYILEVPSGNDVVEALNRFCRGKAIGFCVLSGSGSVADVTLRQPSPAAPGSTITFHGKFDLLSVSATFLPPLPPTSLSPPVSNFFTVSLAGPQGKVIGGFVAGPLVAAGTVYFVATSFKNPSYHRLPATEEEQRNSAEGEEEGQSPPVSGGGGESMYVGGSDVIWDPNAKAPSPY


Columns and labels:
[1] = molecular target: myc-tagged HSP70-1 (HSP70-1-myc) (Arabidopsis thaliana) (UniProt P22953); assay: co-IP; RHD6-GFP, HSP70-1-myc and AHL17-FLAG co-expressed in N. benthamiana leaves; precipitated with anti-myc beads or anti-GFP beads; western blot with anti-GFP, anti-myc and anti-FLAG
[2] = molecular target: AT-HOOK MOTIF NUCLEAR LOCALIZED 17 (AHL17), luciferase-half fusions for LCI (Arabidopsis thaliana) (UniProt Q9LTA2); assay: split reporter; luciferase complementation imaging (LCI, also printed LIC): X-nLUC and cLUC-Y co-infiltrated by Agrobacterium into N. benthamiana leaves; LUC activity detected 2 days after infiltration
[3] = molecular target: T1, AT-HOOK MOTIF NUCLEAR LOCALIZED 28 (AHL28), luciferase-half fusions for LCI (Arabidopsis thaliana); assay: as above
[4] = molecular target: T2, AHL28, YFP-half fusions for BiFC (Arabidopsis thaliana); assay: split reporter; BiFC: nYFP and cYFP fusions co-infiltrated into N. benthamiana leaves; YFP fluorescence examined 2 days after infiltration by confocal microscopy
[5] = molecular target: AHL17, YFP-half fusion for BiFC (Arabidopsis thaliana) (UniProt Q9LTA2); assay: as above

| binding [1] | binding [2] | binding [3] | binding [4] | binding [5] | Binder |
| --- | --- | --- | --- | --- | --- |
|  | no binding | no binding |  |  | ROOT HAIR …6 (RHD6), luciferase-half fusion for LCI (protein, UniProt Q9C707 1-298) MALVNDHPNETNYLSKQNSSSSEDLSSPGLDQPDAAYAGGGGGGGSASSSSTMNSDHQQHQGFVFYPSGEDHHNSLMDFNGSSFLNFDHHESFPPPAISCGGSSGGGGFSFLEGNNMSYGFTNWNHQHHMDIISPRSTETPQGQKDWLYSDSTVVTTGSRNESLSPKSAGNKRSHTGESTQPSKKLSSGVTGKTKPKPTTSPKDPQSLAAKNRRERISERLKILQELVPNGTKVDLVTMLEKAISYVKFLQVQVKVLATDEFWPAQGGKAPDISQVKDAIDAILSSSQRDRNSNLITN |
|  | no binding | no binding |  |  | RHD6-LIKE4 (RSL4), luciferase-half fusion for LCI (protein, UniProt Q8LEG1 1-258) MDVFVDGELESLLGMFNFDQCSSSKEERPRDELLGLSSLYNGHLHQHQHHNNVLSSDHHAFLLPDMFPFGAMPGGNLPAMLDSWDQSHHLQETSSLKRKLLDVENLCKTNSNCDVTRQELAKSKKKQRVSSESNTVDESNTNWVDGQSLSNSSDDEKASVTSVKGKTRATKGTATDPQSLYARKRREKINERLKTLQNLVPNGTKVDISTMLEEAVHYVKFLQLQIKLLSSDDLWMYAPLAYNGLDMGFHHNLLSRLM |
|  | no binding | no binding |  |  | RHD6-LIKE2 (RSL2), luciferase-half fusion for LCI (protein, UniProt Q84WK0 1-352) MEAMGEWSNNLGGMYTYATEEADFMNQLLASYDHPGTGSSSGAAASGDHQGLYWNLGSHHNHLSLVSEAGSFCFSQESSSYSAGNSGYYTVVPPTVEENQNETMDFGMEDVTINTNSYLVGEETSECDVEKYSSGKTLMPLETVVENHDDEESLLQSEISVTTTKSLTGSKKRSRATSTDKNKRARVNKRAQKNVEMSGDNNEGEEEEGETKLKKRKNGAMMSRQNSSTTFCTEEESNCADQDGGGEDSSSKEDDPSKALNLNGKTRASRGAATDPQSLYARKRRERINERLRILQNLVPNGTKVDISTMLEEAVHYVKFLQLQIKLLSSDDLWMYAPIAFNGMDIGLSSPR |
|  | no binding | no binding |  |  | RHD6-LIKE1 (RSL1), luciferase-half fusion for LCI (protein, UniProt Q9FJ00 1-307) MSLINEHCNERNYISTPNSSEDLSSPQNCGLDEGASASSSSTINSDHQNNQGFVFYPSGETIEDHNSLMDFNASSFFTFDNHRSLISPVTNGGAFPVVDGNMSYSYDGWSHHQVDSISPRVIKTPNSFETTSSFGLTSNSMSKPATNHGNGDWLYSGSTIVNIGSRHESTSPKLAGNKRPFTGENTQLSKKPSSGTNGKIKPKATTSPKDPQSLAAKNRRERISERLKVLQELVPNGTKVDLVTMLEKAIGYVKFLQVQVKVLAADEFWPAQGGKAPDISQVKEAIDAILSSSQRDSNSTRETSIAE |

Continued, binder first:

| Binder | binding [1] | binding [2] | binding [3] | binding [4] | binding [5] |
| --- | --- | --- | --- | --- | --- |
| RHD6-GFP (protein, UniProt Q9C707 1-298) MALVNDHPNETNYLSKQNSSSSEDLSSPGLDQPDAAYAGGGGGGGSASSSSTMNSDHQQHQGFVFYPSGEDHHNSLMDFNGSSFLNFDHHESFPPPAISCGGSSGGGGFSFLEGNNMSYGFTNWNHQHHMDIISPRSTETPQGQKDWLYSDSTVVTTGSRNESLSPKSAGNKRSHTGESTQPSKKLSSGVTGKTKPKPTTSPKDPQSLAAKNRRERISERLKILQELVPNGTKVDLVTMLEKAISYVKFLQVQVKVLATDEFWPAQGGKAPDISQVKDAIDAILSSSQRDRNSNLITN | binds |  |  |  |  |
| RHD6, nYFP fusion for BiFC (protein, UniProt Q9C707 1-298) MALVNDHPNETNYLSKQNSSSSEDLSSPGLDQPDAAYAGGGGGGGSASSSSTMNSDHQQHQGFVFYPSGEDHHNSLMDFNGSSFLNFDHHESFPPPAISCGGSSGGGGFSFLEGNNMSYGFTNWNHQHHMDIISPRSTETPQGQKDWLYSDSTVVTTGSRNESLSPKSAGNKRSHTGESTQPSKKLSSGVTGKTKPKPTTSPKDPQSLAAKNRRERISERLKILQELVPNGTKVDLVTMLEKAISYVKFLQVQVKVLATDEFWPAQGGKAPDISQVKDAIDAILSSSQRDRNSNLITN |  |  |  | no binding | no binding |
| AHL19, luciferase-half fusions for LCI (protein, UniProt Q9SR17 1-315) MANPWWTGQVNLSGLETTPPGSSQLKKPDLHISMNMAMDSGHNNHHHHQEVDNNNNDDDRDNLSGDDHEPREGAVEAPTRRPRGRPAGSKNKPKPPIFVTRDSPNALKSHVMEIASGTDVIETLATFARRRQRGICILSGNGTVANVTLRQPSTAAVAAAPGGAAVLALQGRFEILSLTGSFLPGPAPPGSTGLTIYLAGGQGQVVGGSVVGPLMAAGPVMLIAATFSNATYERLPLEEEEAAERGGGGGSGGVVPGQLGGGGSPLSSGAGGGDGNQGLPVYNMPGNLVSNGGSGGGGQMSGQEAYGWAQARSGF |  | binds | binds |  |  |
| AT-HOOK MOTIF NUCLEAR LOCALIZED 28 (AHL28), luciferase-half fusions for LCI (protein, UniProt Q9M9R4 1-206) METVGRPRGRPRGSKNKPKAPIFVTIDPPMSPYILEVPSGNDVVEALNRFCRGKAIGFCVLSGSGSVADVTLRQPSPAAPGSTITFHGKFDLLSVSATFLPPLPPTSLSPPVSNFFTVSLAGPQGKVIGGFVAGPLVAAGTVYFVATSFKNPSYHRLPATEEEQRNSAEGEEEGQSPPVSGGGGESMYVGGSDVIWDPNAKAPSPY |  | binds | binds |  |  |
